According to paper PMC10691697, “A small molecule exerts selective antiviral activity by targeting the human cytomegalovirus nuclear egress complex” (PLOS Pathogens, 2023):

Assays:
[1] = test system: HCMV expressing GFP (53-F BADGFP); conditions: 6 dpi, replicates
HSV-1 P30-UL42 = target: T1, HSV-1 P30-UL42 (Human herpesvirus 1, UniProt P10226); assay: biochemical; assay type: binding; conditions: HSV1 P30-UL42; 1.56 μM compound; replicates
T1 construct: containing UL42 residues 1–340; GST (N); glycine-serine linker of the modified pGEX6p plasmid (presence inferred) (N); made in house; host or cells: E. coli (UL42: pLysS BL21)

HFF cells = assay: in vitro; assay type: cell-based, human; conditions: 6 days, replicates
Description: Cytotoxicities of various compounds were determined using a WST-1 assay that measures metabolic activity (Roche), and CC50’s were calculated as described previously.

T1 sequence (P10226 1-340): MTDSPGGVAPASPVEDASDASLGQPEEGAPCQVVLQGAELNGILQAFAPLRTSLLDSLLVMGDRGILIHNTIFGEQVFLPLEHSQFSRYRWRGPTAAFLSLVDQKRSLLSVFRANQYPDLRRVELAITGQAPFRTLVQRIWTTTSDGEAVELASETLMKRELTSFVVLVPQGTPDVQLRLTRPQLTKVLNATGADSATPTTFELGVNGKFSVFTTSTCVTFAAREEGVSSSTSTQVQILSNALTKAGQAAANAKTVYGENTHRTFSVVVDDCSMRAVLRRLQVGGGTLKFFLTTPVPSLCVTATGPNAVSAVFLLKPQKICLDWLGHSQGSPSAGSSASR

Compound: C=CC(=O)Nc1cccc(Oc2ccnc3[nH]ccc23)c1 [GK2]
- anti-HCMV: number of plaques relative to DMSO vehicle ([1]; 0.80 μM compound): 85.0000 and 82.0000 and 79.0000
- anti-HCMV: number of plaques relative to DMSO vehicle ([1]; 1.60 μM compound): 75.0000 and 63.0000 and 60.0000
- normalized FRET signal relative to control without inhibitor (HSV-1 P30-UL42): 100.0000
- cytotoxicity on HFF: WST-1 absorbance relative to DMSO vehicle (HFF cells; 0.80 μM compound): 84.0000 and 95.0000 and 100.0000
- cytotoxicity on HFF: WST-1 absorbance relative to DMSO vehicle (HFF cells; 1.60 μM compound): 85.0000 and 100.0000 (2×)

“And” between values parts separate entries of the source, which are not always exact repeats. Identical values can stand only once. Like-named read-outs stand apart in the source and are kept apart here.
